From paper PMC4491109, “Synthesis and anticonvulsant activity of new N-phenyl-2-(4-phenylpiperazin-1-yl)acetamide derivatives” (Medicinal Chemistry Research, 2015)

What was measured:
[1] = tested on: voltage-sensitive sodium channel (site 2); type: binding, rat
[2] = biological target: voltage-sensitive sodium channel (site 2); parameters: method as in Brown, 1986; conditions: rat cerebral cortex, experimental conditions of Cerep assay, ref Brown, 1986; read-out: Kd of the radioligand; cited from earlier work

Row | Molecule | % Inhibition of control specific binding, 1 μM ([1]; [3H]BTX, synaptoneurosomal preparations from rat cerebral cortex, 1 μM) | % Inhibition of control specific binding, 10 μM ([1]; [3H]BTX, synaptoneurosomal preparations from rat cerebral cortex, 10 μM) | % Inhibition of control specific binding, 100 μM ([1]; [3H]BTX, synaptoneurosomal preparations from rat cerebral cortex, 100 μM) | % Inhibition of control specific binding, 500 μM ([1]; [3H]BTX, synaptoneurosomal preparations from rat cerebral cortex, 500 μM) | binding to the neuronal voltage-sensitive sodium channel (in words) ([1]; at the highest concentration, 500 μM, 25-50 % inhibition = weak to moderate effects) | Kd [2]
1 | Cl.O=C(CN1CCN(c2cccc(C(F)(F)F)c2)CC1)Nc1cccc(C(F)(F)F)c1 [Compound 20, N-[3-(Trifluoromethyl)phenyl]-2-[4-[3-(trifluoromethyl)phenyl]piperazin-1-yl]acetamide monohydrochloride] | 4.2% | 7.5% | 10.8% | 46.7% | moderate binder | 
2 | [^3H] Batrachotoxin |  |  |  |  |  | 91 nM
